According to the supplement of paper PMC11741623:
This is one part of the list. Interaction screen of human proteins with wild-type SARS-CoV-2 proteins by split-DHFR complementation in yeast, 1 µg/mL methotrexate. Value = fitness of the pair (three or more lineages) minus that of the viral protein without a human partner, on a scale set by negative (0) and fused positive (1) controls, mean of up to three cultures; higher = more likely to interact. Active = false discovery rate below 0.05 (one-sided t-test) in at least one culture. Nearly all pairs are not hits, and differences among them are mostly noise (correlation between cultures about 0.3); most hits were seen in one culture only. Human sequences are the Swiss-Prot entries looked up by gene name; the clone may be another isoform. NSP2 values were corrected by the authors for a growth advantage. Listed are human proteins with a hit and a random twelfth of the others.

Assays:
Experiment in all cases: yeast fitness gain over the viral ORF with no human partner (scaled fitness); higher = more likely to interact
SARS-CoV-2 NSP10 = molecular target: SARS-CoV-2 NSP10
Experimental: (§1)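 Split mouse DHFR complementation in pooled diploid yeast: human ORFeome clones carry one fragment and viral ORFs the other; barcoded lineages compete in 1 µg/mL methotrexate and fitness is read by barcode sequencing in up to three cultures.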

SARS-CoV-2 NSP12 = molecular target: SARS-CoV-2 NSP12
Experimental: as §1

SARS-CoV-2 NSP13 = molecular target: SARS-CoV-2 NSP13
Experimental: as §1

SARS-CoV-2 NSP2 = molecular target: SARS-CoV-2 NSP2
Experimental: as §1

SARS-CoV-2 NSP5 = molecular target: SARS-CoV-2 NSP5
Experimental: as §1

SARS-CoV-2 NSP6 = molecular target: SARS-CoV-2 NSP6
Experimental: as §1

SARS-CoV-2 NSP8 = molecular target: SARS-CoV-2 NSP8
Experimental: as §1

SARS-CoV-2 NSP9 = molecular target: SARS-CoV-2 NSP9
Experimental: as §1

SARS-CoV-2 ORF6 = molecular target: SARS-CoV-2 ORF6
Experimental: as §1

SARS-CoV-2 ORF9B = molecular target: SARS-CoV-2 ORF9B
Experimental: as §1

SARS-CoV-2 ORF10 = molecular target: SARS-CoV-2 ORF10
Experimental: as §1

SARS-CoV-2 ORF3B = molecular target: SARS-CoV-2 ORF3B
Experimental: as §1

SARS-CoV-2 ORF8 = molecular target: SARS-CoV-2 ORF8
Experimental: as §1

[1] = molecular target: SARS-CoV-2 ORF9Bwu (the 73-codon ORF)
Experimental: as §1

SARS-CoV-2 S = molecular target: SARS-CoV-2 S
Experimental: as §1

Measured: yeast fitness gain

B1: SLC26A5, P58743 (protein)
chain: MDHAEENEILAATQRYYVERPIFSHPVLQERLHTKDKVPDSIADKLKQAFTCTPKKIRNIIYMFLPITKWLPAYKFKEYVLGDLVSGISTGVLQLPQGLAFAMLAAVPPIFGLYSSFYPVIMYCFLGTSRHISIGPFAVISLMIGGVAVRLVPDDIVIPGGVNATNGTEARDALRVKVAMSVTLLSGIIQFCLGVCRFGFVAIYLTEPLVRGFTTAAAVHVFTSMLKYLFGVKTKRYSGIFSVVYSTVAVLQNVKNLNVCSLGVGLMVFGLLLGGKEFNERFKEKLPAPIPLEFFAVVMGTGISAGFNLKESYNVDVVGTLPLGLLPPANPDTSLFHLVYVDAIAIAIVGFSVTISMAKTLANKHGYQVDGNQELIALGLCNSIGSLFQTFSISCSLSRSLVQEGTGGKTQLAGCLASLMILLVILATGFLFESLPQAVLSAIVIVNLKGMFMQFSDLPFFWRTSKIELTIWLTTFVSSLFLGLDYGLITAVIIALLTVIYRTQSPSYKVLGKLPETDVYIDIDAYEEVKEIPGIKIFQINAPIYYANSDLYSNALKRKTGVNPAVIMGARRKAMRKYAKEVGNANMANATVVKADAEVDGEDATKPEEEDGEVKYPPIVIKSTFPEEMQRFMPPGDNVHTVILDFTQVNFIDSVGVKTLAGIVKEYGDVGIYVYLAGCSAQVVNDLTRNRFFENPALWELLFHSIHDAVLGSQLREALAEQEASAPPSQEDLEPNATPATPEA
inactive: SARS-CoV-2 NSP10 = -0.00445 | SARS-CoV-2 NSP12 = 0.0343 | SARS-CoV-2 NSP13 = -0.169 | SARS-CoV-2 NSP2 = -0.00362 | SARS-CoV-2 NSP5 = 0.149 | SARS-CoV-2 NSP6 = -0.0825 | SARS-CoV-2 NSP8 = 0.0312 | SARS-CoV-2 NSP9 = -0.339 | SARS-CoV-2 ORF6 = -0.0446 | SARS-CoV-2 ORF9B 0.05

B2: JOSD2, Q8TAC2 (protein)
chain: MSQAPGAQPSPPTVYHERQRLELCAVHALNNVLQQQLFSQEAADEICKRLAPDSRLNPHRSLLGTGNYDVNVIMAALQGLGLAAVWWDRRRPLSQLALPQVLGLILNLPSPVSLGLLSLPLRRRHWVALRQVDGVYYNLDSKLRAPEALGDEDGVRAFLAAALAQGLCEVLLVVTKEVEEKGSWLRTD
inactive: SARS-CoV-2 NSP10 = 0.042 | SARS-CoV-2 NSP12 = 0.025 | SARS-CoV-2 NSP13 = -0.0543 | SARS-CoV-2 NSP2 = -0.266 | SARS-CoV-2 NSP5 = 0.0558 | SARS-CoV-2 ORF10 = -0.0826 | SARS-CoV-2 ORF3B 0.0271 | SARS-CoV-2 ORF8 = -0.0251 | SARS-CoV-2 ORF9B 0.0411 | [1] -0.259 | SARS-CoV-2 S -0.00568

B3: PIP5K1A, Q99755 (protein)
chain: MASASSGPSSSVGFSSFDPAVPSCTLSSAASGIKRPMASEVLEARQDSYISLVPYASGMPIKKIGHRSVDSSGETTYKKTTSSALKGAIQLGITHTVGSLSTKPERDVLMQDFYVVESIFFPSEGSNLTPAHHYNDFRFKTYAPVAFRYFRELFGIRPDDYLYSLCSEPLIELCSSGASGSLFYVSSDDEFIIKTVQHKEAEFLQKLLPGYYMNLNQNPRTLLPKFYGLYCVQAGGKNIRIVVMNNLLPRSVKMHIKYDLKGSTYKRRASQKEREKPLPTFKDLDFLQDIPDGLFLDADMYNALCKTLQRDCLVLQSFKIMDYSLLMSIHNIDHAQREPLSSETQYSVDTRRPAPQKALYSTAMESIQGEARRGGTMETDDHMGGIPARNSKGERLLLYIGIIDILQSYRFVKKLEHSWKALVHDGDTVSVHRPGFYAERFQRFMCNTVFKKIPLKPSPSKKFRSGSSFSRRAGSSGNSCITYQPSVSGEHKAQVTTKAEVEPGVHLGRPDVLPQTPPLEEISEGSPIPDPSFSPLVGETLQMLTTSTTLEKLEVAESEFTH
inactive: SARS-CoV-2 NSP10 = 0.0173 | SARS-CoV-2 ORF6 = -0.129

B4: POM121C, A8CG34 (protein)
chain: MSPAAAAAGAGERRRPIASVRDGRGRGCGGPAGAALLGLSLVGLLLYLVPAAAALAWLAVGTTAAWWGLSREPRGSRPLSSFVQKARHRRTLFASPPAKSTANGNLLEPRTLLEGPDPAELLLMGSYLGKPGPPQPAPAPEGQDLRNRPGRRPPARPAPRSTPPSQPTHRVHHFYPSLPTPLLRPSGRPSPRDRGTLPDRFVITPRRRYPIHQTQYSCPGVLPTVCWNGYHKKAVLSPRNSRMVCSPVTVRIAPPDRRFSRSAIPEQIISSTLSSPSSNAPDPCAKETVLSALKEKKKKRTVEEEDQIFLDGQENKRRRHDSSGSGHSAFEPLVASGVPASFVPKPGSLKRGLNSQSSDDHLNKRSRSSSMSSLTGAYTSGIPSSSRNAITSSYSSTRGISQLWKRNGPSSSPFSSPASSRSQTPERPAKKIREEELCHHSSSSTPLAADKESQGEKAADTTPRKKQNSNSQSTPGSSGQRKRKVQLLPSRRGEQLTLPPPPQLGYSITAEDLDLEKKASLQWFNQALEDKSDAASNSVTETPPTTQPSFTFTLPAAATASPPTSLLAPSTNPLLESLKKMQTPPSLPPCPESAGAATTEALSPPKTPSLLPPLGLSQSGPPGLLPSPSFDSKPPTTLLGLIPAPSMVPATDTKAPPTLQAETATKPQATSAPSPAPKQSFLFGTQNTSPSSPAAPAASSASPMFKPIFTAPPKSEKEGLTPPGPSVSATAPSSSSLPTTTSTTAPTFQPVFSSMGPPASVPLPAPFFKQTTTPATAPTTTAPLFTGLASATSAVAPITSASPSTDSASKPAFGFGINSVSSSSVSTTTSTATAASQPFLFGAPQASAASFTPAMGSIFQFGKPPALPTTTTVTTFSQSLPTAVPTATSSSAADFSGFGSTLATSAPATSSQPTLTFSNTSTPTFNIPFGSSAKSPLPSYPGANPQPAFGAAEGQPPGAAKPALTPSFGSSFTFGNSAAPAPATAPTPAPASTIKIVPAHVPTPIQPTFGGATHSAFGLKATASAFGAPASSQPAFGGSTAVFSFGAATSSGFGATTQTASSGSSSSVFGSTTPSPFTFGGSAAPAGSGSFGINVATPGSSATTGAFSFGAGQSGSTATSTPFTGGLGQNALGTTGQSTPFAFNVGSTTESKPVFGGTATPTFGQNTPAPGVGTSGSSLSFGASSAPAQGFVGVGPFGSAAPSFSIGAGSKTPGARQRLQARRQHTRKK
inactive: SARS-CoV-2 NSP10 = -0.0516 | SARS-CoV-2 NSP12 = -0.303 | SARS-CoV-2 NSP13 = -0.123 | SARS-CoV-2 NSP2 = -0.364 | SARS-CoV-2 NSP5 = -0.0143 | SARS-CoV-2 NSP8 = -0.0395 | SARS-CoV-2 ORF10 = -0.159 | SARS-CoV-2 ORF3B -0.132 | SARS-CoV-2 ORF6 = 0.0806 | SARS-CoV-2 ORF8 = -0.124 | SARS-CoV-2 ORF9B 0.0457 | SARS-CoV-2 S -0.0521
